The values below come from the supplement of paper PMC11417369.

Some of the results follow.

The test relates to PfHDP1 homeodomain (GST-tagged). Nature of the test: gcPBM binding intensity (ln(normalized median fluorescence intensity)); higher = stronger DNA binding. In short, it runs like this:
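An Agilent 4 × 180k array carrying primer-extended double-stranded 36-bp intergenic genomic probes and negative controls received GST-tagged P. falciparum DNA-binding domains expressed in E. coli, about 25 μg on average, for 1 h. The binding buffer contained 1× PBS, 1% milk, 0.2 mg/ml BSA, 0.5% salmon testes DNA and 0.03% Triton X-100. Binding intensity is the top Masliner-normalised natural-log median intensity across replicate spots of either probe orientation, read after Alexa488 anti-GST antibody staining and a 488 nm scan.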
Take “CACACAGGTAAAAAGGTGCAGTTGAAATATTCCTCA [GTGCAC_site9730]”: the “gcPBM binding intensity (ln)” value was found to be 6.65. To “TGTTTATTTAATAATATTTTTTTTTTTATTATATTA [XGTACX_negctrl_site56]” belongs 6.2. The value for “AGGTGATTGATATATACACACATACCTATATTTATA [CACACA_site7348]” was 6.56.

As to “TTATTAAAATATTCTAGTACATATAAAAGGAGAACA [XGTACX_site4374]”, the “gcPBM binding intensity (ln)” value is 6.81. With “GAAATAAATATATATGCATGTACTTTAATATTATTA [TGCATGCA_site904]”, the “gcPBM binding intensity (ln)” value is 6.3. For the sequence “TAAATATATTCATAAAGTACAAAGCAAAATTGTCTA [XGTACX_site7274]”, the “gcPBM binding intensity (ln)” value is 6.48. On to “GTGCTTATTTATACATGTACAAATGATAAGTTTGTA [XGTACX_site169]”, for which the “gcPBM binding intensity (ln)” value worked out at 6.88. Turning to “TTATTATCTCTTGTCATTATTATATACTAAGAAGTA [CACACA_negctrl_site410]”, the “gcPBM binding intensity (ln)” value stood at 6.35. Turning to “AATATGAAATATATTACACACATTTATATGTTGAAA [CACACA_site1427]”, the “gcPBM binding intensity (ln)” value is 6.31. On to “ATTACATTTTTAATGCGTACTAAAAATGTATATAAG [XGTACX_site6384]”, for which the “gcPBM binding intensity (ln)” value was 6.6. Regarding “AGAATTACTTAAAAAAGTACATAAAATTATTTAAAA [XGTACX_site2205]”, the “gcPBM binding intensity (ln)” value came to 5.96.

For the sequence “AATATAAAAATGTTTACACACACACCCAAATATATT [CACACA_site2511]”, the “gcPBM binding intensity (ln)” value was found to be 6.92. As for “AATACACCCAGACACACACACAAAAAAAAAAAAAAA [CACACA_site513]”, the “gcPBM binding intensity (ln)” value was 6.45. Consider “ATATATATATTAAATACACACATTTTTGATTAGGTT [CACACA_site3119]”, for which the “gcPBM binding intensity (ln)” value is 8.19. Consider “TTTGAATCCTTATATACACACATTATGTAATATTAT [CACACA_site561]”, for which the “gcPBM binding intensity (ln)” value stood at 6.83. The value for “AAAAGAGAAATGGGCACACACACACCGATTATATAT [CACACA_site4942]” was 6.78; that for “TCTAATTATCACATTGCACACACATTTCCTTTTACA [CACACA_site9140]” was 9.66.

Regarding “TTATACTGTATAGTCGCACACAAAAATATAAAATAT [CACACA_site3869]”, the “gcPBM binding intensity (ln)” value came out at 6.75.

In the case of “TAATTAATTTATGTAACACACATTGTTGATTCAATA [CACACA_site1098]”, the “gcPBM binding intensity (ln)” value is 6.53. On to AAAAGTCTCTTTTTAGTGCACATTTTATTTAAATAT, for which the “gcPBM binding intensity (ln)” value turned out to be 9.6. The value for “CAGATAAGGTGAAGCTGTACAAAAATGTTTTATAAC [XGTACX_site6783]” was 6.53. To “AAAGATTTAGAAAATGAACACACGAGCACCCACCGA [CACACA_site1017]” belongs 7.27; to “GAAAGAGAGATATATACACACATATTTATATTTTTA [CACACA_site7057]”, 6.53; to “ATTTTAATAAACACTTACATGTTTTCCAAATTGTAT [CACACA_negctrl_site1807]”, 6.31. Take “TTCGTTAAAAATAAATGTACATAAATAAACCTTATT [XGTACX_site621]”: the “gcPBM binding intensity (ln)” value worked out at 6.25.

On to “ATATTAAGAATGTATACATGCATATATATATAGTAC [TGCATGCA_site219]”, for which the “gcPBM binding intensity (ln)” value turned out to be 7.01. On to “TATTAATAAATATGTTTACACACGAAAATACATTTT [CACACA_site1012]”, for which the “gcPBM binding intensity (ln)” value stood at 6.35. The value for “ATTTTCATATTTTTATGTACATATTATAAGAATATA [XGTACX_site3691]” was 6.42. Consider “TATCTTTTTTTTAATACACACAAATTTATGAAAGTA [CACACA_site7879]”, for which the “gcPBM binding intensity (ln)” value came to 6.75. “ATGGAATATTTCATGATTTTTTTAATTTTTTTATTG [XGTACX_negctrl_site55]”: the “gcPBM binding intensity (ln)” value turned out to be 5.66. On to “TGTCTTTATATATATTTATTTTTTAGTATTACATAA [CACACA_negctrl_site21]”, for which the “gcPBM binding intensity (ln)” value was found to be 6.71. Consider GTGGTTATATATTAAGTGCATATTATAATTTTAAAC, for which the “gcPBM binding intensity (ln)” value was 9.28. As for “AATATCTAAAATGTGTGTACATAATATTTTTAATAT [XGTACX_site3831]”, the “gcPBM binding intensity (ln)” value was found to be 6.22.

As to “ATAGATAAAAAATTATTTATTTAGAATTTTTATGTA [CACACA_negctrl_site400]”, the “gcPBM binding intensity (ln)” value is 6.04. Turning to “TGTATAAATAAATGCGTACACACTAATAAAAAAAAA [CACACA_site858]”, the “gcPBM binding intensity (ln)” value turned out to be 6.65. In the case of “AAAAAAAATATGATGAGTACACAATAATACATGCAA [XGTACX_site6999]”, the “gcPBM binding intensity (ln)” value is 7.1. As to “TTATGTAAATAATTTTGTACTTAAATTATTATATAA [XGTACX_site1491]”, the “gcPBM binding intensity (ln)” value stood at 6.1.

On to “CAACTTTTTGAAAATTGTACATGACATATATATATA [XGTACX_site260]”, for which the “gcPBM binding intensity (ln)” value turned out to be 8.94. On to “AAGAAAATATAAATATGTACTTAATAATTTATTTAT [XGTACX_site8100]”, for which the “gcPBM binding intensity (ln)” value was 5.91. On to “AAAAAAGAGGGATACACACAAACATATATATATATA [CACACA_site2243]”, for which the “gcPBM binding intensity (ln)” value turned out to be 9.28. As for “ACAAAACATATATTCTGTACATATATAATGGTGACT [XGTACX_site6796]”, the “gcPBM binding intensity (ln)” value came to 6.33. As for “TTTATATCTTATTATAGGAAAATGAATATTTTCTCT [TGCATGCA_negctrl_site478]”, the “gcPBM binding intensity (ln)” value came to 6.22. Turning to “TATATTAATTAACAGTGTACAAAAAAAAATAAAAAA [XGTACX_site3702]”, the “gcPBM binding intensity (ln)” value was determined as 6.84. The value for “TTTATTTTAAAATTTACACACAAAAGGATTTATAGA [CACACA_site2338]” was 6.28. To “AAAATAAAAAGAAATTGTACGTATAATAATATATTT [XGTACX_site7593]” belongs 6.68; to “AGGATACACGGACACACACACATATATATATATATA [CACACA_site4654]”, 9.44; to “TATTAAAATAACATACGTACATAAGTATATAAAAAA [XGTACX_site1769]”, 6.42. For the sequence “TTTATTCCAGTATTCACACACGAATAACCACATAAC [CACACA_site5104]”, the “gcPBM binding intensity (ln)” value was determined as 6.51. Take “TATATAAGAGGAAAAAGTACAGAAAAACAAAGAGAA [XGTACX_site2926]”: the “gcPBM binding intensity (ln)” value is 6.72. The value for “TGTATTTATAGCAATACACACATAACAATAAATATA [CACACA_site3328]” was 6.6. In the case of “ATAATTCTTTATTATAGTACACAAACTTTCAAAACA [XGTACX_site3597]”, the “gcPBM binding intensity (ln)” value was 6.33. The value for “CTATACATATTATATAGTACTTTATTATTATGACTA [XGTACX_site1382]” was 6.57; that for “CACTTTTCATATATGACACACAAAAAATTAATAAAA [CACACA_site3639]” was 6.61.

Regarding “AGCACACCCACAAAAACACACACAAAGGTGTTCTTA [CACACA_site8355]”, the “gcPBM binding intensity (ln)” value was determined as 6.46. To “TCATTATTATTCCTCACACATATATATATATATATT [CACACA_site4375]” belongs 7.16; to “GCATGTATAATGGTAGTGCATATAATAATATAATAA [GTGCAC_site9548]”, 9.4; to “TAATAATAAAAATAAACACACATATAGATGTATATA [CACACA_site7360]”, 6.12. For “ATTTTGTTCGAAAGGTGTACATATACAAAAATTATG [XGTACX_site957]”, the “gcPBM binding intensity (ln)” value worked out at 6.83. For the sequence “ATTGCTTTTCTTTTTGCACACTTATGCATATATATA [CACACA_site2584]”, the “gcPBM binding intensity (ln)” value came to 10.4. Turning to “TAAAATAATACAAAATGTACAAAATTTACAAAATGT [XGTACX_site3541]”, the “gcPBM binding intensity (ln)” value worked out at 6.05. As to “AATATAGAACAATGTTGTACATATAATAATCTTATA [XGTACX_site4671]”, the “gcPBM binding intensity (ln)” value was 6.14. For “ATGTAAATTAAACATGGTACACATTATACAAAATTA [XGTACX_site5675]”, the “gcPBM binding intensity (ln)” value amounted to 6.56. The value for “AATATTAAAAACAAAACACACAAAAAAAAATAAACT [CACACA_site6470]” was 6.97; that for “ATTAACACTGAAAAATGTACATATATAAATATAAGC [XGTACX_site8222]” was 6.19; that for “AACGATATCTGTACTACACACATTATGTCATCCTAT [CACACA_site5374]” was 6.81. ATATAAGTATTTTGAATGCACTTTCTTTTTTTTTTT: the “gcPBM binding intensity (ln)” value turned out to be 7.52. The value for “TTATAAAATAATTAATGTACGTTTATGTGTATCGAA [XGTACX_site6117]” was 6.63; that for “ACTGAAAAAAGAAATACACACATTCTGGATCATATA [CACACA_site3860]” was 6.47; that for “ATATATATGAAAATATGTACATATATATATATATAA [XGTACX_site7550]” was 6.8.

“TTTATGGGTATGTTTACACACATAAAAAAATATATG [CACACA_site5646]”: the “gcPBM binding intensity (ln)” value was found to be 6.26. On to “AAAGTTATAATACGTACACACCTTATCTTTTTGGCT [CACACA_site6267]”, for which the “gcPBM binding intensity (ln)” value turned out to be 6.41.

In the case of “ATATCGTATATGAGTGGTACTAATATGTAAAAAAAA [XGTACX_site7830]”, the “gcPBM binding intensity (ln)” value came to 6.47. In the case of “TATTATCTCTTATGAACACACATTTTTATTTTCAAA [CACACA_site3353]”, the “gcPBM binding intensity (ln)” value stood at 6.54. The value for “ATAATAATAAAGTGAACACACACATATAATATATAT [CACACA_site9378]” was 6.58; that for “ATTATACACGCGCGCACACACAACAAAAAAAAAAAA [CACACA_site7630]” was 7.23. Regarding “TAAATAAACAAATTAACACACAGAATTTTTTTTTTC [CACACA_site1674]”, the “gcPBM binding intensity (ln)” value is 6.18. To “TGGTAACAGCATAGAAAATGGACAAACGAAATATAA [GTGCAC_negctrl_site537]” belongs 6.96; to “AATGTTAAGGAGGGGAGTACATAAAATTCTCTCTCC [XGTACX_site1990]”, 6.36. Consider “AAAAGCTATAAAAATCGGTAATTTATAACAGGAATT [CACACA_negctrl_site469]”, for which the “gcPBM binding intensity (ln)” value came to 6.44. For “ATTATGTACTATTATACACACGTTTAATTGTAAATT [CACACA_site4278]”, the “gcPBM binding intensity (ln)” value stood at 6.77. For TGATTCTAACTTATGGTGCAACATTATGGACACCGT, the “gcPBM binding intensity (ln)” value is 10.5. Take “TTAATATTGTTATAGCGTACAAATAAACATATTAAA [XGTACX_site8153]”: the “gcPBM binding intensity (ln)” value amounted to 6.33. To “TTACATATTTATGATTGTACACATTTATAAACAATA [XGTACX_site2190]” belongs 6.27; to “TATTTAAAAATAAAATGTACATATTATTATGCATTA [XGTACX_site1303]”, 6.28; to “TACATACATAAACACACACACACATATATATATATA [CACACA_site8953]”, 9.31. To “ATTTTATAAACAAATGAACACACAAACATATATATA [CACACA_site9036]” belongs 7.06; to “CATTAATGACATGATTGTACATAAGCTTTTTTACAT [XGTACX_site1888]”, 6.62; to “ACCCATTCAAATTTCGCACACACATACAAAAAAAAA [CACACA_site3094]”, 7.39. Turning to “ATCAAAAGAAAACACACACACATACATATATATATA [CACACA_site3795]”, the “gcPBM binding intensity (ln)” value amounted to 8.82.
